Source: the supplement of paper PMC8728848
The list shows a part of the results.

How the values were obtained:
Assay in all cases: glycan array binding signal (z-score within array); higher = stronger binding
Settings in all cases: glycan notation: IUPAC condensed, linker removed
[1] = target: Fuc(a1-2)Gal(b1-4)GlcNAc(b1-2)Man(a1-3)[Fuc(a1-2)Gal(b1-4)GlcNAc(b1-2)Man(a1-6)]Man(b1-4)GlcNAc(b1-4)[Fuc(a1-6)]GlcNAc
Procedure, shortened: (§1)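 Glycan array data came from 3228 arrays in the Consortium for Functional Glycomics database, and only arrays with an available protein sequence were kept. Glycan names were put into IUPAC-condensed notation, and columns mapping to the same glycan were averaged. The binding signal is a within-array Z-score, averaged across arrays of one protein sequence run at different concentrations or buffers and across linkers. A negative Z-score can be read as non-binding.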

[2] = target: Fuc(a1-2)Gal(b1-4)GlcNAc(b1-2)[Fuc(a1-2)Gal(b1-4)GlcNAc(b1-4)]Man(a1-3)[Fuc(a1-2)Gal(b1-4)GlcNAc(b1-2)Man(a1-6)]Man(b1-4)GlcNAc(b1-4)GlcNAc
Procedure, shortened: as §1

[3] = target: Fuc(a1-2)Gal(b1-4)GlcNAc(b1-3)Gal(b1-4)GlcNAc
Procedure, shortened: as §1

[4] = target: Fuc(a1-2)Gal(b1-4)GlcNAc(b1-3)Gal(b1-4)GlcNAc(b1-2)Man(a1-3)[Fuc(a1-2)Gal(b1-4)GlcNAc(b1-3)Gal(b1-4)GlcNAc(b1-2)Man(a1-6)]Man(b1-4)GlcNAc(b1-4)GlcNAc
Procedure, shortened: as §1

[5] = target: Fuc(a1-2)Gal(b1-4)GlcNAc(b1-3)Gal(b1-4)GlcNAc(b1-3)Gal(b1-4)GlcNAc
Procedure, shortened: as §1

[6] = target: Fuc(a1-2)Gal(b1-4)GlcNAc(b1-3)GalNAc
Procedure, shortened: as §1

[7] = target: Fuc(a1-2)Gal(b1-4)GlcNAc(b1-3)[Fuc(a1-2)Gal(b1-4)GlcNAc(b1-6)]GalNAc
Procedure, shortened: as §1

[8] = target: Fuc(a1-2)Gal(b1-4)GlcNAc(b1-3)[Fuc(a1-3)[Gal(b1-4)]GlcNAc(b1-6)]Gal(b1-4)Glc
Procedure, shortened: as §1

[9] = target: Fuc(a1-2)Gal(b1-4)GlcNAc(b1-6)GalNAc
Procedure, shortened: as §1

[10] = target: Fuc(a1-2)Gal(b1-4)GlcNAc6S
Procedure, shortened: as §1

[11] = target: Fuc(a1-2)Gal(b1-4)[Fuc(a1-3)]GlcNAc
Procedure, shortened: as §1

[12] = target: Fuc(a1-2)Gal(b1-4)[Fuc(a1-3)]GlcNAc(b1-2)Man(a1-3)[Fuc(a1-2)Gal(b1-4)[Fuc(a1-3)]GlcNAc(b1-2)Man(a1-6)]Man(b1-4)GlcNAc(b1-4)GlcNAc
Procedure, shortened: as §1

[13] = target: Fuc(a1-2)Gal(b1-4)[Fuc(a1-3)]GlcNAc(b1-2)Man(a1-3)[Fuc(a1-2)Gal(b1-4)[Fuc(a1-3)]GlcNAc(b1-2)Man(a1-6)]Man(b1-4)GlcNAc(b1-4)[Fuc(a1-6)]GlcNAc
Procedure, shortened: as §1

[14] = target: Fuc(a1-2)Gal(b1-4)[Fuc(a1-3)]GlcNAc(b1-2)[Fuc(a1-2)Gal(b1-4)[Fuc(a1-3)]GlcNAc(b1-4)]Man(a1-3)[Fuc(a1-2)Gal(b1-4)[Fuc(a1-3)]GlcNAc(b1-2)Man(a1-6)]Man(b1-4)GlcNAc(b1-4)GlcNAc
Procedure, shortened: as §1

[15] = target: Fuc(a1-2)Gal(b1-4)[Fuc(a1-3)]GlcNAc(b1-3)Gal(b1-4)[Fuc(a1-3)]GlcNAc
Procedure, shortened: as §1

[16] = target: Fuc(a1-2)Gal(b1-4)[Fuc(a1-3)]GlcNAc(b1-3)Gal(b1-4)[Fuc(a1-3)]GlcNAc(b1-3)Gal(b1-4)[Fuc(a1-3)]GlcNAc
Procedure, shortened: as §1

[17] = target: Fuc(a1-2)Gal(b1-4)[Fuc(a1-3)]GlcNAc(b1-3)GalNAc
Procedure, shortened: as §1

[18] = target: Fuc(a1-2)Gal(b1-4)[Fuc(a1-3)]GlcNAc(b1-3)[Neu5Ac(a2-6)Gal(b1-4)GlcNAc(b1-6)]Gal(b1-4)Glc
Procedure, shortened: as §1

[19] = target: Fuc(a1-2)Gal3S(b1-4)GlcNAc
Procedure, shortened: as §1

[20] = target: Fuc(a1-2)Gal6S(b1-3)GlcNAc
Procedure, shortened: as §1

[21] = target: Fuc(a1-2)Gal6S(b1-3)GlcNAc6S
Procedure, shortened: as §1

[22] = target: Fuc(a1-2)Gal6S(b1-4)Glc
Procedure, shortened: as §1

[23] = target: Fuc(a1-2)Gal6S(b1-4)Glc6S
Procedure, shortened: as §1

[24] = target: Fuc(a1-2)Gal6S(b1-4)GlcNAc
Procedure, shortened: as §1

[25] = target: Fuc(a1-2)[Gal(a1-3)]Gal
Procedure, shortened: as §1

[26] = target: Fuc(a1-2)[Gal(a1-3)]Gal(b1-3)GalNAc
Procedure, shortened: as §1

[27] = target: Fuc(a1-2)[Gal(a1-3)]Gal(b1-3)GalNAc(b1-3)Gal(a1-4)Gal(b1-4)Glc
Procedure, shortened: as §1

[28] = target: Fuc(a1-2)[Gal(a1-3)]Gal(b1-3)GlcNAc
Procedure, shortened: as §1

[29] = target: Fuc(a1-2)[Gal(a1-3)]Gal(b1-3)GlcNAc(b1-2)Man(a1-3)[Fuc(a1-2)[Gal(a1-3)]Gal(b1-3)GlcNAc(b1-2)Man(a1-6)]Man(b1-4)GlcNAc(b1-4)GlcNAc
Procedure, shortened: as §1

[30] = target: Fuc(a1-2)[Gal(a1-3)]Gal(b1-3)GlcNAc(b1-2)Man(a1-3)[Fuc(a1-2)[Gal(a1-3)]Gal(b1-3)GlcNAc(b1-2)Man(a1-6)]Man(b1-4)GlcNAc(b1-4)[Fuc(a1-6)]GlcNAc
Procedure, shortened: as §1

B1: HPA (Helix pomatia), Q575S3 (protein)
chain: MWAHLTGLLLICALSLSAAQRAQTGEIDCGSDSSWPKDPSDNPNRDNTREIVKHVTFSPQFCREPKVILSVTTLDAEHTKNLRYEARLKSVSPSGLSASCYSWHDGTIYRMKLSWLAVED
glycan array binding signal (z-score) [1]: -0.229
glycan array binding signal (z-score) [2]: -0.235
glycan array binding signal (z-score) [3]: -0.268
glycan array binding signal (z-score) [4]: -0.243
glycan array binding signal (z-score) [5]: -0.272
glycan array binding signal (z-score) [6]: -0.244
glycan array binding signal (z-score) [7]: -0.251
glycan array binding signal (z-score) [8]: -0.256
glycan array binding signal (z-score) [9]: -0.251
glycan array binding signal (z-score) [10]: -0.26
glycan array binding signal (z-score) [11]: -0.264
glycan array binding signal (z-score) [12]: -0.221
glycan array binding signal (z-score) [13]: -0.245
glycan array binding signal (z-score) [14]: -0.224
glycan array binding signal (z-score) [15]: -0.27
glycan array binding signal (z-score) [16]: -0.262
glycan array binding signal (z-score) [17]: -0.228
glycan array binding signal (z-score) [18]: -0.254
glycan array binding signal (z-score) [19]: -0.257
glycan array binding signal (z-score) [20]: -0.257
glycan array binding signal (z-score) [21]: -0.23
glycan array binding signal (z-score) [22]: -0.253
glycan array binding signal (z-score) [23]: -0.255
glycan array binding signal (z-score) [24]: -0.266
glycan array binding signal (z-score) [25]: -0.264
glycan array binding signal (z-score) [26]: -0.25
glycan array binding signal (z-score) [27]: -0.259
glycan array binding signal (z-score) [28]: -0.24
glycan array binding signal (z-score) [29]: -0.26
glycan array binding signal (z-score) [30]: -0.24
